Measurements published in patent publication US20220411483A1 (Chugai, published 2022).
Where a chain is given by its changes, count along the chain named.

B1: IL6R-F648/IL6R-L (antibody, human IgG1, kappa)
heavy: QVQLQESGPGLVKPSETLSLTCAVSGHSISHDHAWSWVRQPPGEGLEWIGFISYSGITNYNPSLQGRVTISRDNSKNTLYLQMNSLRAEDTAVYYCARSLARTTAMDYWGEGTLVTVSS[human IgG1 constant region with P238D (EU numbers) not shown]
light: DIQMTQSPSSLSASVGDRVTITCRASQDISSYLNWYQQKPGKAPKLLIYYTSRLHSGVPSRFSGSGSGTDFTFTISSLQPEDIATYYCQQGNTLPYTFGQGTKVEIKRTVAAPSVFIFPPSDEQLKSGTASVVCLLNNFYPREAKVQWKVDNALQSGNSQESVTEQDSKDSTYSLSSTLTLSKADYEKHKVYACEVTHQGLSSPVTKSFNRGEC
B2: IL6R-G1dK322A/IL6R-L (antibody, human IgG1, kappa)
heavy: QVQLQESGPGLVKPSETLSLTCAVSGHSISHDHAWSWVRQPPGEGLEWIGFISYSGITNYNPSLQGRVTISRDNSKNTLYLQMNSLRAEDTAVYYCARSLARTTAMDYWGEGTLVTVSS[human IgG1 constant region with K322A (EU numbers) not shown]
light: B1 light
B3: IL6R-G1dK322E/IL6R-L (antibody, human IgG1, kappa)
heavy: QVQLQESGPGLVKPSETLSLTCAVSGHSISHDHAWSWVRQPPGEGLEWIGFISYSGITNYNPSLQGRVTISRDNSKNTLYLQMNSLRAEDTAVYYCARSLARTTAMDYWGEGTLVTVSS[human IgG1 constant region with K322E (EU numbers) not shown]
light: B1 light
B4: IL6R-P112/IL6R-L (antibody, human IgG1, kappa)
heavy: QVQLQESGPGLVKPSETLSLTCAVSGHSISHDHAWSWVRQPPGEGLEWIGFISYSGITNYNPSLQGRVTISRDNSKNTLYLQMNSLRAEDTAVYYCARSLARTTAMDYWGEGTLVTVSS[human IgG1 constant region with P238D P271G (EU numbers) not shown]
light: B1 light
B5: IL6R-P600/IL6R-L (antibody, human IgG1, kappa)
heavy: QVQLQESGPGLVKPSETLSLTCAVSGHSISHDHAWSWVRQPPGEGLEWIGFISYSGITNYNPSLQGRVTISRDNSKNTLYLQMNSLRAEDTAVYYCARSLARTTAMDYWGEGTLVTVSS[human IgG1 constant region with P238D S298A (EU numbers) not shown]
light: B1 light
B6: IL6R-P742/IL6R-L (antibody, human IgG1, kappa)
heavy: QVQLQESGPGLVKPSETLSLTCAVSGHSISHDHAWSWVRQPPGEGLEWIGFISYSGITNYNPSLQGRVTISRDNSKNTLYLQMNSLRAEDTAVYYCARSLARTTAMDYWGEGTLVTVSS[human IgG1 constant region with P238D K322E (EU numbers) not shown]
light: B1 light
B7: IL6R-P741/IL6R-L (antibody, human IgG1, kappa)
heavy: QVQLQESGPGLVKPSETLSLTCAVSGHSISHDHAWSWVRQPPGEGLEWIGFISYSGITNYNPSLQGRVTISRDNSKNTLYLQMNSLRAEDTAVYYCARSLARTTAMDYWGEGTLVTVSS[human IgG1 constant region with P238D K322A (EU numbers) not shown]
light: B1 light
B8: IL6R-G1dK322A/IL6R-L (antibody, human IgG1, kappa)
heavy: B2 heavy
light: B1 light
B9: IL6R-G1dK322E/IL6R-L (antibody, human IgG1, kappa)
heavy: B3 heavy
light: B1 light
B10: IL6R-P112/IL6R-L (antibody, human IgG1, kappa)
heavy: B4 heavy
light: B1 light
B11: IL6R-P600/IL6R-L (antibody, human IgG1, kappa)
heavy: B5 heavy
light: B1 light

The binders below were run against T1, human FcγRIa extracellular domain with C-terminal His tag (human, UniProt P12314 16-292) (assay: SPR, antibody captured, FcgR analyte).
T1 construct: Whole entry named; also called FcgRIa
T1 sequence (P12314 16-292): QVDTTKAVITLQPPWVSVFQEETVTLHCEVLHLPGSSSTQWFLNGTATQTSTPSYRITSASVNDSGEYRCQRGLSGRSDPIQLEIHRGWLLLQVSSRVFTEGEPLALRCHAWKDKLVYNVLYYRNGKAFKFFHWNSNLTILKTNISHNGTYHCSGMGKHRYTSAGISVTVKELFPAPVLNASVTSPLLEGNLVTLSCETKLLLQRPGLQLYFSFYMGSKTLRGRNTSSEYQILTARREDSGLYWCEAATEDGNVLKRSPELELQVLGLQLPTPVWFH
A Kd of 6.4 nM was found for B1 in this work. A Kd of 0.25 nM was found for B2 in this work. A Kd of 0.18 nM was found for B3 in this work. A Kd of 3.5 nM was found for B4 in this work. A Kd of 3.6 nM was found for B5 in this work. A Kd of 8.2 nM was found for B6 in this work.

What follows are binders tested against T2, human FcγRIIa R type extracellular domain with C-terminal His tag (human, UniProt P12318 34-217) (assay: SPR, antibody captured, FcgR analyte).
T2 construct: extracellular domain; also called FcgRIIaR
T2 sequence (looked up): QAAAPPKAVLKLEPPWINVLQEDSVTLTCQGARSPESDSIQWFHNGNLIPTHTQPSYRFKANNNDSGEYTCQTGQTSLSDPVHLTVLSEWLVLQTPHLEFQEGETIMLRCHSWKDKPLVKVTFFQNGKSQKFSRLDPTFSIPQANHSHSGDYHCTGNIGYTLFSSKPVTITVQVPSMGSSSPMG
A Kd of 16 µM was found for B1 in this work. A Kd of 0.95 µM was found for B2 in this work. A Kd of 0.81 µM was found for B3 in this work. A Kd of 3.4 µM was found for B4 in this work. A Kd of 39 µM was found for B5 in this work. A Kd of 20 µM was found for B7 in this work. A Kd of 16 µM was found for B6 in this work.

The binders below were run against T3, human FcγRIIa H type extracellular domain with C-terminal His tag (human, UniProt P12318 34-217) (assay: SPR, antibody captured, FcgR analyte).
T3 construct: extracellular domain; also called FcgRIIaH
T3 sequence (looked up): T2 sequence (looked up) with R134H
A Kd of 900 nM was found for B2 in this work. A Kd of 680 nM was found for B3 in this work.

The binders below were run against T4, human FcγRIIb extracellular domain with C-terminal His tag (human, UniProt P31994 43-217) (assay: SPR, antibody captured, FcgR analyte).
T4 construct: extracellular domain; also called FcgRIIb
T4 sequence (looked up): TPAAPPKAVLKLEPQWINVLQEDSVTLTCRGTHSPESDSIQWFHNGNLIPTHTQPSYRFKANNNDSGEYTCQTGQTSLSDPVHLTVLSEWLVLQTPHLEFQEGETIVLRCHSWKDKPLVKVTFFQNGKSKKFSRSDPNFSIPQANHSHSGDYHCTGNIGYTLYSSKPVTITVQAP
A Kd of 2100 nM was found for B2 in this work. A Kd of 2000 nM was found for B3 in this work. A Kd of 280 nM was found for B4 in this work. A Kd of 3200 nM was found for B5 in this work. A Kd of 1500 nM was found for B7 in this work.

Each binder was assayed against T5, human FcγRIIIa V type extracellular domain with C-terminal His tag (human, UniProt P08637 partial chain) (assay: SPR, antibody captured, FcgR analyte).
T5 construct: extracellular domain; also called FcgRIIIaV
T5 sequence (P08637 17-208 F176V): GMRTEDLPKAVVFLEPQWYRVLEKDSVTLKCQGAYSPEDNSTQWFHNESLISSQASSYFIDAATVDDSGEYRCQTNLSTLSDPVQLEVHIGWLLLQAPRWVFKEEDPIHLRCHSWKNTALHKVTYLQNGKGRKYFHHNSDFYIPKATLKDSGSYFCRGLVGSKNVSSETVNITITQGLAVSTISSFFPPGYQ
A Kd of 500 nM was found for B2 in this work. A Kd of 470 nM was found for B3 in this work.

What follows are binders tested against T6, FcgRIIaR (human, UniProt P12318 34-217) (assay: SPR, amount bound per captured antibody).
T6 construct: extracellular domain; also called FcγRIIa R type; FcγRIIa (R type)
T6 sequence (looked up): T2 sequence (looked up)
With B8 the “Relative FcgRIIaR-binding Activity” value was 105 IL6R-G1d/IL6R-L=100. In the case of B9, the “Relative FcgRIIaR-binding Activity” value is reported as 112 IL6R-G1d/IL6R-L=100. With B10 the “Relative FcgRIIaR-binding Activity” value was 75.7 IL6R-G1d/IL6R-L=100. With B11 the “Relative FcgRIIaR-binding Activity” value was 15.6 IL6R-G1d/IL6R-L=100.

What follows are binders tested against T7, FcgRIIb (human, UniProt P31994 43-217) (assay: SPR, amount bound per captured antibody).
T7 construct: extracellular domain; also called FcγRIIb
T7 sequence (looked up): T4 sequence (looked up)
For B8, the “Relative FcgRIIb-binding Activity” value was 109 IL6R-G1d/IL6R-L=100. B9 was tested, and the “Relative FcgRIIb-binding Activity” value was 129 IL6R-G1d/IL6R-L=100. In the case of B10, the “Relative FcgRIIb-binding Activity” value is reported as 287 IL6R-G1d/IL6R-L=100. In the case of B11, the “Relative FcgRIIb-binding Activity” value is reported as 102 IL6R-G1d/IL6R-L=100.

These binders were tested against T8, human complement C1q (human, UniProt P02745; P02746; P02747) (assay: SPR, C1q bound per antibody captured on Protein L).
T8 construct: Bought (PROSPEC or Calbiochem); also called human C1q
T8 sequence (P02745 23-245 limits assumed, chain 1 of 3): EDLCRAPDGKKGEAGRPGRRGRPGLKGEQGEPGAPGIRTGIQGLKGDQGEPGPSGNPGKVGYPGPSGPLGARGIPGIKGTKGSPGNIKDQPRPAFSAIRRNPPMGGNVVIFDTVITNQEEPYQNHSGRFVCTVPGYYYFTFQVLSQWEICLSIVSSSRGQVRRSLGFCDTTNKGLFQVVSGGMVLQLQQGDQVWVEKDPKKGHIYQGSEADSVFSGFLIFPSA
T8 sequence (P02746 28-253 limits assumed, chain 2 of 3, further chain): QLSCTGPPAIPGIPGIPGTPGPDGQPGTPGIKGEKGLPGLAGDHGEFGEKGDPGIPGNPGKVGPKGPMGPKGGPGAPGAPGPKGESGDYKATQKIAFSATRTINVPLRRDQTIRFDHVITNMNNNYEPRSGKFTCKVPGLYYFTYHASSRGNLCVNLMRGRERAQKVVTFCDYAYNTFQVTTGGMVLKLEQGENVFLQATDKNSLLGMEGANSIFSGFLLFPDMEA
T8 sequence (P02747 29-245 limits assumed, chain 3 of 3, further chain): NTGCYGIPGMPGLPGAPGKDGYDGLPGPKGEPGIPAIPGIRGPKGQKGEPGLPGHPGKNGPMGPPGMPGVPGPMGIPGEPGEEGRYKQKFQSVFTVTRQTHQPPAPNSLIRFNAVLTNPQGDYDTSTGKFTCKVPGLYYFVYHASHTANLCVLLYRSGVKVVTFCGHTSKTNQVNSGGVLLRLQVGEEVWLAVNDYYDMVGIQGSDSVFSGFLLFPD
Protocol: The interaction between an antibody and human C1q was analyzed using Biacore T200 (GE Healthcare). HBS-EP+ (GE Healthcare) was used as the running buffer, and the measurement temperature was set at 25° C. Chips produced by immobilizing Protein L (ACTIGEN or BioVision) onto Series S sensor Chip CM4 (GE Healthcare) by amine coupling were used.
The antibodies of interest were captured onto these sensor chips, and allowed to interact with human complement C1q (PROSPEC or Calbiochem) diluted in the running buffer. The amount of antibody binding was determined, and comparisons were made among the antibodies. However, since the amount of C1q bound depends on the amount of captured antibodies, corrected values obtained by dividing the amount of C1q bound by the amount of each antibody captured were compared. Furthermore, by reaction with 10 mM glycine-HCl, pH 1.5, the antibodies captured onto the sensor chips were washed, and the sensor chips were recycled and reused.
In the case of B8, the “Amount of C1q-binding when that for G1d is Defined as 100” value (from here on “Amount of C1q-binding when that”) is reported as 20.5 G1d=100. For B9, the “Amount of C1q-binding when that” value was 2.3 G1d=100. With B10 the “Amount of C1q-binding when that” value was 24.2 G1d=100. With B11 the “Amount of C1q-binding when that” value was 2.4 G1d=100.

These binders were tested against T1, human FcγRIa extracellular domain with … (assay: SPR, KD of IL6R-G1d/IL6R-L divided by KD of variant).
B1 was tested, and the “Relative FcgRIa-binding Activity” value was 0.05. B2 was tested, and the “Relative FcgRIa-binding Activity” value was 1.28. With B3 the “Relative FcgRIa-binding Activity” value was 1.78. B4 was tested, and the “Relative FcgRIa-binding Activity” value was 0.091. With B5 the “Relative FcgRIa-binding Activity” value was 0.089. For B6, the “Relative FcgRIa-binding Activity” value was 0.039.

These binders were tested against T2, human FcγRIIa R type extracellular … in the same assay as above.
B1 was tested, and the “Relative FcgRIIaR-binding Activity” value was 0.07. For B2, the “Relative FcgRIIaR-binding Activity” value was 1.16. With B3 the “Relative FcgRIIaR-binding Activity” value was 1.36. B4 was tested, and the “Relative FcgRIIaR-binding Activity” value was 0.32. B5 was tested, and the “Relative FcgRIIaR-binding Activity” value was 0.03. For B6, the “Relative FcgRIIaR-binding Activity” value was 0.07.

Each binder was assayed against T3, human FcγRIIa H type extracellular … in the same assay as above.
With B1 the “Relative FcgRIIaH-binding Activity” value was 0.017. B2 was tested, and the “Relative FcgRIIaH-binding Activity” value was 0.689. For B3, the “Relative FcgRIIaH-binding Activity” value was 0.912. B4 was tested, and the “Relative FcgRIIaH-binding Activity” value was 0.018. For B5, the “Relative FcgRIIaH-binding Activity” value was 0.012. In the case of B6, the “Relative FcgRIIaH-binding Activity” value is reported as 0.017.

These binders were tested against T4, human FcγRIIb extracellular domain with … in the same assay as above.
In the case of B2, the “Relative FcgRIIb-binding Activity” value is reported as 1. In the case of B3, the “Relative FcgRIIb-binding Activity” value is reported as 1.1. With B4 the “Relative FcgRIIb-binding Activity” value was 7.5. B5 was tested, and the “Relative FcgRIIb-binding Activity” value was 0.7.

These binders were tested against T5, human FcγRIIIa V type extracellular … in the same assay as above.
For B1, the “Relative FcgRIIIaV-binding Activity” value was 0.006. With B2 the “Relative FcgRIIIaV-binding Activity” value was 0.74. For B3, the “Relative FcgRIIIaV-binding Activity” value was 0.787. In the case of B4, the “Relative FcgRIIIaV-binding Activity” value is reported as 0.005. For B5, the “Relative FcgRIIIaV-binding Activity” value was 0.006. B6 was tested, and the “Relative FcgRIIIaV-binding Activity” value was 0.007.
